Test results taken from the supplement of paper PMC3334620.
Whole data set: some 33,000 sequences, median “E-score (-0.5 to 0.5)” near -0.01, cut for the highest 2% near 0.26. Some of the results follow.

What follows are sequences tested against Ste12 (UniProt P13574) (assay: PBM E-score (8-mer binding enrichment) (E-score (-0.5 to 0.5)); higher = stronger / more preferred TF binding; most listed sequences are background and not binding sites). Conditions: protein concentration: 200 nM; construct: GST-DNA-binding domain.
Outline: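 GST-tagged yeast TFs (full-length or DNA-binding domain) were made by PURExpress in vitro transcription/translation and applied at about 100-200 nM to universal all-10-mer Agilent arrays. The arrays were made double-stranded by primer extension, on fresh or once-stripped slides. Bound protein was detected with fluorescent anti-GST, and scans were normalised with masliner. Each ungapped eight-base word, pooled with its reverse complement, received an E-score (modified Wilcoxon-Mann-Whitney statistic) from the Universal PBM Analysis Suite.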

Sequence	PBM E-score
GAACACCC	-0.188
GCGACAGA	0.154
CTAGGTCC	-0.0928
AGCCACCG	-0.131
TGCTCCCA	-0.169
GGGTGCCA	-0.0859
CAAGACAA	0.128
AAAACTAT	0.184
CTAGATAC	-0.017
AATCGGAG	0.038
ACCTGGAC	-0.202
AGTAAAGA	-0.06
AATTTATC	0.281
CAAAACAG	0.12
GAAAGGCC	-0.176
GGGAACCA	-0.143
CTGGTACA	0.123
GGGGACTA	-0.258
AGCCAAGC	-0.0471
GCTCTCAA	-0.112
ATAGCAGA	-0.0552
AAGCCGCA	-0.00271
ATGGTTTG	0.0887
GATTCCCC	-0.171
AACTGTTG	-0.0344

Sequence	PBM E-score
GAAGTCGA	-0.0443
CATAGCAA	0.116
GGTGAGCA	-0.145
GCATGTAC	-0.0328
CTCGTAAG	0.101
CGAGTGCA	-0.058
AGCTTATC	0.0209
CGGCTGAG	-0.141
CTCCCGAG	-0.29
ATTGCGAC	0.277
CACTTCTC	-0.0367
GCGGTGGA	-0.00579
AGGCGGAT	0.0168
CCTTACTC	0.096
ATTAATAC	0.263
GAGGCCTC	-0.147
ACAACGAC	0.0895
CTCAGGTA	-0.153
ACGGCTCC	-0.116
ACGTTAGC	-0.0146
ATGTACTG	0.0248
CAGTAAAC	0.121
CCTAGGCA	0.0176
CGAAGTAG	-0.186
ACGCAGGC	-0.088

Sequence	PBM E-score
AAGTCCTG	-0.137
TAAGGTGA	-0.0689
AAAAAGGA	0.0687
TGTTAAAA	0.168
CCTGAAGC	-0.107
ATATTAAA	0.29
CGGTACCA	-0.0434
CTTTACGA	-0.0396
ACACACCG	-0.00474
AGTCTCTG	-0.13
ATCAAGTC	-0.0521
CAGCGGGA	-0.137
AGAAAATC	0.176
ACGATTTC	0.0655
AGATCGAT	0.042
CCGTGAAC	-0.0201
CGATTTTA	0.259
ACCCACAG	-0.131
CGCGAATA	0.0618
CAGAAATC	0.0243
CAGACGTC	-0.15
AAGGTTCT	0.0379
CTATGTCC	-0.134
CCTGGTTC	-0.0593
AAGAAAAC	0.275

Sequence	PBM E-score
ATATCGAA	0.184
ATACGGAC	-0.0508
ACGATCTC	-0.112
ATTCGATA	0.184
CAAGACGC	0.165
GGAAAAAA	0.309
CACCAAGG	-0.0541
GAGAAAAA	0.147
TCCGGTAA	0.015
ATGCTACC	0.083
AAAGCGAT	0.09
CGCTACAG	-0.0906
CGTAATGC	-0.155
AATACCTA	0.0687
TCAAGAAA	0.256
AGAAGCAT	0.0473
CCCATGGG	0.157
GTATACTA	-0.0508
GCAGGTAC	-0.204
ACCATGGG	-0.124
GCCGCAAA	0.147
TATTAGAA	0.0955
ACCCTAAA	0.163
AGGAAAAA	0.16
CGTCTGCC	-0.0908

Sequence	PBM E-score
ATTCTTGC	0.19
GCTCGGAC	-0.236
AGAGCATA	-0.0337
CGCAGCAC	-0.0772
AATATGGG	0.119
CTTGCTCA	-0.116
ACATACAT	0.263
ACAGCAAA	0.144
CGTGGAAA	0.19
ACACCCGG	-0.0238
AGTTGCAT	-0.0636
GCCGGAAC	0.2
ACATTTCA	0.0519
ATAGTTCA	-0.0273
AATCCCGA	0.255
ATAATGCA	0.0574
GTCACCCA	-0.106
CTTACACA	-0.0439
AACAGGCA	-0.148
GTAGCAAC	-0.17
CACGTTGG	-0.0653
ACGGCGCG	-0.115
ACTCCATA	-0.0663
ATAGCCGC	-0.016
CGTCGACC	-0.0841

Sequence	PBM E-score
CACCGCAG	0.057
CGTTTAGA	0.0822
GAGCGCCA	-0.15
AACTACGC	0.0692
AAGACCAG	-0.15
GATATATC	-0.00788
ACTGAGTA	-0.148
CTGGAATA	0.0549
GTCCACAC	-0.05
TCAGCCAA	-0.0131
ATCTCGCA	0.107
AGAATGCG	0.038
AGCAGCCG	0.0132
ATGTCACA	0.239
TGATGGAA	0.0104
AATGTGAG	0.00388
GTTTAAAA	0.3
AAGACTAA	0.132
ATTTCAGG	0.112
GCCATTGA	-0.0202
CCAACTTA	0.0138
GAAGCTGC	-0.0801
CCTTTGAC	0.0362
CTCTTGGC	-0.0666
CGCGTCAC	-0.0307

Sequence	PBM E-score
CGAAGGCA	-0.141
ATGTTGGC	0.112
AAGTGACC	-0.135
TAGCGCTA	-0.0612
ATCGGTAC	-0.0762
ATCATAGA	0.0892
AAGGACGT	-0.0421
TATGGGGA	0.195
ACATGCCG	-0.00746
AAAGTCGT	-0.0472
AAGCGGCT	0.0417
ATCCCAAC	-0.00567
CAAAACTG	0.116
CTATCGTC	-0.248
CTGGCTTC	-0.0802
ACGAAAAC	0.25
CTAGTAAA	0.194
ACAGGCGA	-0.213
ACAGCTCG	-0.157
GACCTTCA	-0.206
CGACTGCC	-0.0302
ATTAAACG	0.155
AGCAGCAT	-0.203
CGAGCTGA	0.0044
AGGTGACC	-0.111

Sequence	PBM E-score
GGTGTTCA	-0.0821
CCCACACC	0.0495
ACTACTCC	0.0344
GATGTATA	0.0546
TCCTGGAA	-0.0685
CACGGCGA	0.00223
CCTTCACA	0.146
AACTTCTG	0.0938
CCGCGTAC	-0.07
ACCGACGC	-0.0512
CCAAGGGA	-0.18
CTGACGGA	-0.0925
ACACCAAG	-0.103
AATCGAGC	-0.123
GGACACTA	-0.167
AGTATCGA	0.111
ACACCCAA	0.0218
AGGCATTG	-0.0128
CGACAGCG	-0.0915
TACGAATA	0.0491
GCTAAGGA	-0.048
ACCCGCCG	0.137
ACAGGACA	-0.00224
CGCACTGA	-0.243
AAGTTGCT	-0.134

Sequence	PBM E-score
CTAGCGTA	-0.281
AGACTAGC	-0.224
GTACCTAC	-0.325
ACCTGTTA	-0.0567
CTCACCGA	-0.00381
ACTTTTGC	0.109
CGCTCCCA	-0.00923
CCTAACTA	0.0845
ATAGCCGG	-0.111
CCTCCATA	-0.0991
CTACACAA	-0.0125
GGCACCCA	-0.101
CCCGTAGG	-0.172
AAAGCGTT	0.0336
GACAGGGA	-0.138
CGAGTTAG	0.0577
AAGGCTAA	-0.0258
GACTGCCC	-0.0715
GATGGAGC	-0.176
GCAGTGGA	-0.0364
ACACTTAG	0.0589
AGCGGGAC	-0.133
GATTACGA	0.149
GAAAGCAC	0.06
ATGAATCG	0.072

Sequence	PBM E-score
AACCGCCC	0.00313
CACAATGC	0.00421
GCGTCGTA	0.057
CCTGCAGA	0.0997
GCATAACC	-0.0119
ATACCCGG	0.104
ATGGAAAC	0.263
CACTGGGG	-0.175
CAGACAAA	0.212
GTTTGTAA	0.199
CCCAGATC	-0.14
ACATTCTG	-0.0747
CAAGAGTC	-0.28
CTGGCCTA	-0.127
GAGCAACA	-0.138
AGTTACTA	0.00299
CGATCAAG	-0.15
GACTAGGA	-0.047
CTATGACC	-0.14
TCGGACCA	-0.137
AACTATCG	-0.0459
GCGAGATA	0.175
ACGAGAGC	-0.137
AGGGCTAA	-0.0946
ACTAGCTA	-0.0308

Sequence	PBM E-score
CACGGCTA	-0.188
CGCTTCAA	0.038
CCTTTCGA	0.112
GCGCTTTA	-0.206
ACTACACG	0.0288
ATCTTTTG	0.123
AGTTCTTC	0.14
AATAGTAA	0.156
AGCGGGGG	-0.26
CAGGCGAA	-0.139
TACTCTAA	0.0561
CATTCGTA	-0.0838
AGGGGTCA	-0.0707
ACATCATG	0.0856
GCTGACAC	0.0351
AAGTTGCC	-0.15
ATGGCCCG	-0.0237
AAGGCTCA	-0.132
AACGCGCT	0.0874
CCACTGGC	-0.0254
GCAAATTA	0.2
CGAAGACA	-0.0403
AGGCACTG	-0.147
CCTGCAAG	-0.168
TGACGGAA	0.0905

Sequence	PBM E-score
AGAGCCCT	-0.118
ACTGGGAG	-0.171
CGGCGAGC	-0.107
GCGATAAA	0.0353
CCATACGG	-0.142
TTAGGCAA	-0.127
ACAACACG	-0.0902
AACATAAA	0.249
GGGGACGA	-0.173
AGATTTAT	0.234
AATTACAA	0.118
AGACACGA	0.0828
ATCTACCG	0.0211
TGACTGAA	0.0244
AACTAGAG	0.105
CGCACACC	0.0291
ACGGCTTA	0.00641
CATCTGGG	-0.0158
GCTTAGCC	-0.115
GGGATGCA	-0.0678
ACAATCTA	0.0392
CCGAGTGA	-0.0607
GATACTCA	0.0586
GACTCGCC	-0.104
GGGAGCGA	-0.0631

Sequence	PBM E-score
GATCTAAA	0.157
ATCACTCA	-0.0868
ACTAGAGG	-0.134
AGAAGGCA	-0.121
CCGAGCAC	0.01
GCATTTAA	0.12
CCATCGCG	0.023
GAAGTCCA	-0.208
GGCGAAAA	0.234
AGCAGAGA	-0.0271
ACGAAATG	0.0753
AGCGCCGC	3e-05
CACCCGAA	0.223
AATGCCGA	0.0021
GTCGTCGA	-0.17
CTGCCGCA	0.0784
CTATAATC	0.0522
ACGCTGTA	0.00742
CTTTAGAA	0.0701
ACGTAGGA	-0.131
GACTAGCA	-0.106
AATCGAAT	0.222
GCCCAGGA	0.0726
TAACTATA	0.046
GCGGCAGC	0.00517

Sequence	PBM E-score
TAGCGCAA	0.144
GCGTATTA	-0.0112
GTAGCGCA	0.115
CCGGCTAA	0.0663
CTGGGACA	-0.0584
AACGCACT	-0.0209
AATTTGTG	0.169
AAGGACAA	0.0794
AAACTTCT	0.088
GGCAAGCC	-0.0158
CCTAACAC	-0.0384
CGGCTTAG	-0.0725
ACTCCCTA	-0.148
ATTAGTCG	0.148
CACATCAG	0.00816
GGGTAGTA	-0.0859
AGTACGCC	-0.21
ACGGTCTC	-0.101
GATGCCTA	-0.26
